The target in one experiment is T1, GST-WHRN NPDZ12 (UniProt Q9P202).
T1 sequence: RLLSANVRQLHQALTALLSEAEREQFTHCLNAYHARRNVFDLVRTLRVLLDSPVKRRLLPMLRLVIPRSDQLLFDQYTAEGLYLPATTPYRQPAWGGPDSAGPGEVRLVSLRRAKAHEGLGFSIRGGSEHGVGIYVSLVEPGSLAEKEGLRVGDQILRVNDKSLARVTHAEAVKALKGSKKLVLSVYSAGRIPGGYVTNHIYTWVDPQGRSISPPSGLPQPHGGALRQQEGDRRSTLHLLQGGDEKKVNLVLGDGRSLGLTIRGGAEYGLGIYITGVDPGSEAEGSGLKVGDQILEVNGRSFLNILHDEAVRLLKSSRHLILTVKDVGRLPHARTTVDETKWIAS
Nature of the experiment: pull-down; GST-tagged bait (10 μM) with purified partners, room temperature 0.5 h or 4 °C 1 h; washed with purification buffer; SDS-PAGE and Coomassie blue staining; both purified.

The next experiment concerns the target T2, PDZD7 PDZ12 (UniProt E9Q9W7).
T2 sequence: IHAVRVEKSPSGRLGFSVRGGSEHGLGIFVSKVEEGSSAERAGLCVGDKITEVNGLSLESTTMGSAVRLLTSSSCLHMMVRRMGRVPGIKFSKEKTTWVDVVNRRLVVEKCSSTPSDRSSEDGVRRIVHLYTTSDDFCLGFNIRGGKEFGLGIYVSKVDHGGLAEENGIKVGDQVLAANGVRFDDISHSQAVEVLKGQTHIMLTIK
Nature of the experiment: ITC; MicroCal iTC200, 25 °C; 50 mM tris pH 7.5-8.0, 300 mM NaCl, 1 mM DTT, 1 mM EDTA; cell 20–50 µM, syringe 400–800 µM; one-site binding model; both purified.

Another experiment addresses T3, PDZD7 PDZ3 (UniProt E9Q9W7).
T3 sequence: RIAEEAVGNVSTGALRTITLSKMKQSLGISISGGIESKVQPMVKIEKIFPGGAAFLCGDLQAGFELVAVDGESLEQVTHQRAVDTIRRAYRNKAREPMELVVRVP
Described as above.

The next experiment addresses T4, WHRN NPDZ1 (UniProt Q9P202 33-239).
T4 chain: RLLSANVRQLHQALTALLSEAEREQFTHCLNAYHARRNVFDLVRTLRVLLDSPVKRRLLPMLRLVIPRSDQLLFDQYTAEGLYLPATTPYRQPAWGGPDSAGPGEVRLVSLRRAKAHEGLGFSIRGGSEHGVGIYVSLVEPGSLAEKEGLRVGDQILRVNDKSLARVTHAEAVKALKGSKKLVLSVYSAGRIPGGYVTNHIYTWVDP
The experiment is described as above.

Experiment [1] addresses T5, WHRN NPDZ12 (UniProt Q9P202 33-377).
T5 construct: WHRN, residues 33-377 (NTD, PDZ1 and PDZ2) of UniProtKB Q9P202; Cloned into pET.32M.3C; Named Trx-WHRN NPDZ12 in SEC-MALS; also called Trx-WHRN NPDZ12; Whirlin; source: E. coli BL21 (DE3), purified (Ni2+-NTA, size-exclusion chromatography); not shown: Trx, N-terminal, kept
T5 sequence (looked up): T1 sequence
Kind of experiment: SEC; FPLC on Superose 12 10/300 GL with fractionation; WHRN NPDZ12, USH2A-CT(S) and ADGRV1-CT mixed at 1:1:1; fractions on SDS-PAGE, Coomassie blue; both purified. Background: In gel filtration, larger molecules generally elute earlier.

A further experiment deals with T6, GST-PDZD7 PDZ12 (UniProt E9Q9W7).
T6 sequence: T2 sequence
Nature of the experiment: pull-down; GST-tagged bait (10 μM) with purified partners, room temperature 0.5 h or 4 °C 1 h; washed with purification buffer; SDS-PAGE and Coomassie blue staining; both purified.

The target in experiment [2] is T5, WHRN NPDZ12. Nature of the experiment: co-sedimentation; 20 μM of each protein, room temperature 5 min, 30 °C 10 min, centrifuged at 16,873 g 10 min; supernatant and pellet on SDS-PAGE, Coomassie blue (condensed phase); both purified.

Where a chain is given by its changes, count along the chain named. In names and notes the source's numbering stands. Results are given in words; binding and its absence hold for the method and conditions named. Some binding calls cover weakened binding; strength is not graded here. For some assays here: Where a sequence is shown, tags or fusion partners need not be part of it.

B1: PDZD7 PDZ12 G103R (domain or fragment, UniProt E9Q9W7 84-289)
chain: T2 sequence with G20R
Consider B1, for which the binding entry with GST-WHRN NPDZ12 was “no binding”.

B2: ADGRV1-CT (domain or fragment, UniProt Q8VHN7 6239-6298, looked up)
chain: GSLIADEESQEFDDLIFALKTGAGLSVSDNESGQGSQEGGTLTDSQIVELRRIPIADTHL
notes: ADGRV1 cytoplasmic region, residues 6239-6298 of UniProtKB Q8VHN7; Named Trx-ADGRV1-CT in SEC-MALS; also called Trx-ADGRV1-CT; VLGR1-CT; source: E. coli BL21 (DE3), purified (Ni2+-NTA, size-exclusion chromatography); not shown: Trx, N-terminal, kept
As to B2, the binding result in the experiment with PDZD7 PDZ12 is listed as “no binding (tested: cell 20–50 µM, syringe 400–800 µM)”; in the experiment with PDZD7 PDZ3, “no binding (tested: cell 20–50 µM, syringe 400–800 µM)”; with WHRN NPDZ1, “binds”; with WHRN NPDZ12 [1] it was “binds”; with GST-PDZD7 PDZ12 it was “no binding”; in the experiment with GST-WHRN NPDZ12, “binds”. Further, the binding result in the experiment with WHRN NPDZ12 [2] is “binds”.
